Several values for one entry are separate records, joined by “and”; a condition that tells them apart may be missing. Equal values may be shown once. Inconclusive means that the source gave no clear call. Such entries were picked first, then a sample of the others. A potency beside an inconclusive call is a rough fit, not a confirmed value. Activity calls are given as the source filed them. The call rests on the fitted dose curve; in most records, active means well fitted cell-killing curve with a large enough effect; inconclusive means small, poorly fitted or top-dose-only effect, or effect the other way; inactive means no such curve, though single readings can be large or run the other way.
Test: Viability qHTS for spleen associated tyrosine kinase inhibitor (SYKi) drug resistant MV4-11 cells (AID 1963824); further: nearly all actives have a fitted effect of over 35% in size
Conditions: SYKi-resistant MV4-11 viability, CellTiter-Glo, 72 h; series mostly up to 45 µM; viability, % of control: at the top concentration
How it was run: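 SYK inhibitor-resistant MV4-11 AML cells, 500 per well, added to predispensed compounds and incubated 72 hr at 37 C, 5% CO2. Viability measured by CellTiter-Glo luminescence after 10 min at room temperature.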
Potency means the concentration at half of the fitted maximal effect; tags describe the fitted curve by direction and shape.

Row | SMILES | Potency | viability, % of control
1 | C=C(C(=O)O)C1CCC(C)C2CCC(=O)OC2(C)C1 (centres undefined) | active: 20.6 µM | –
2 | C[C@@H]1O[C@@H](O[C@H]2[C@H](O)[C@@H](O)[C@H](OC[C@H]3O[C@@H](OC(=O)[C@]45CCC(C)(C)C[C@H]4C4=CCC6[C@@]7(C)CC[C@H](O[C@@H]8OC[C@H](O)[C@H](O[C@@H]9O[C@H](CO)[C@@H](O)[C@H](O)[C@H]9O)[C@H]8O)[C@@](C)(CO)C7CC[C@@]6(C)[C@]4(C)CC5)[C@H](O)[C@@H](O)[C@@H]3O)O[C@@H]2CO)[C@H](O)[C@H](O)[C@H]1O (some centres undefined) | inconclusive: 2.19 µM [cytotoxic, partial curve, poor fit] | –
3 | COc1ccc(C(=O)N2CCN(c3ccc4c(c3)CCC(=O)N4)CC2)cc1OC | inconclusive: 18.6 µM [cytotoxic, partial curve] | –
4 | O=C(O)c1ccccc1O | – | inactive: 82%
5 | CC1(C)CCC[C@@]2(C)[C@H]1[C@H](O)C=C1COC(=O)[C@@]12O | inconclusive: 9.2 µM [cytotoxic, partial curve, poor fit] | –
6 | CC1(C)CCCC2(C)C1C(O)C=C(CO)C2(O)C(=O)O (centres undefined) | inconclusive: 10.3 µM [cytotoxic, partial curve, poor fit] | –
7 | Cc1cc2c(c(=O)o1)C=C1CC[C@H]([C@H](C)Cn3cnc(=N)c4[nH]cnc43)C[C@@H]1O2 | – | inactive: 80.9%
8 | COC(=O)CC[C@H](NC(=O)[C@H](CC(C)C)NC(=O)OCc1ccccc1)C(=O)N[C@@H](Cc1cnc[nH]1)C(=O)N[C@@H](CC(=O)OC)C(=O)CF | – | inactive: 91.2% [at 9.25 µM]
9 | COc1cc2c(cc1-c1c(C)noc1C)ncc1[nH]c(=O)n(C(C)c3ccccn3)c12 (centres undefined) | active: 0.366 µM | –
10 | CC1CCCC[C@H]2C(=O)C=C[C@H](O)[C@@H]2CC(=O)O1 (some centres undefined) | active: 0.731 µM | –
11 | C=C(C)C(=O)OC1CC(CO)CCC/C(CO)=C/C2OC(=O)C(=C)C21 (centres undefined) | inconclusive: 1.8 µM [cytotoxic, full curve] | –
12 | COC(=O)C[C@H]1[C@]2(C)C3=C(C)[C@H](c4ccoc4)C[C@H]3O[C@@H]2[C@H](OC(C)=O)C2[C@](C)(C(=O)OC)C=CC(=O)[C@@]21C (some centres undefined) | inconclusive: 5.63 µM [cytotoxic, partial curve, poor fit] | –
13 | O=Nc1c2[nH]c3ccccc3nc-2c2ccccc12 | active: 10.3 µM | –
14 | COc1cc(C2OCC3C(c4ccc(OC5OC(CO)C(O)C(O)C5O)c(OC)c4)OCC23)ccc1O (centres undefined) | inconclusive: 0.0893 µM [cytotoxic, partial curve, poor fit] | –
15 | COc1ccc2nc3n[nH]c(C)c3c(NCCOCCO)c2c1 | active: 16.4 µM and active: 13.2 µM | –
16 | C=C1C(=O)O[C@@H]2[C@H]1[C@H](O)C[C@]1(C)[C@@H](O)CC=C(C)[C@@H]21 | active: 4.11 µM | –
17 | CN(CC(=O)N(Cc1ccc(C2CCCCC2)cc1)c1ccc(C(=O)O)cc1)S(=O)(=O)c1c(F)c(F)c(F)c(F)c1F | active: 1.03 µM | –
18 | CN1C(=O)c2ccccc2-n2c(nc3ccccc3c2=O)/C1=C/c1ccccc1 | inconclusive: 16.1 µM [cytotoxic, single point] | –
19 | O=C(O[C@@H]1O[C@H](CO)[C@@H](O)[C@H](O)[C@H]1O)c1ccccc1 | inconclusive: 0.0651 µM [cytotoxic, full curve, poor fit] | –
20 | Cn1cc(/C=C/C(=O)c2cccc(F)c2)cc1/C=C/C(=O)NO | active: 4.17 µM | –

Row | SMILES | Potency | viability, % of control
21 | COc1cc(NC(=O)c2cc(C3CC3)on2)c(OC)cc1Cl | – | inactive: 78.5%
22 | O=C1C(Cl)=C(N2CCOCC2)C(=O)N1c1ccc(Cl)c(Cl)c1 | active: 5.02 µM | –
23 | C[C@]1(OC(=O)/C=C/c2ccccc2)C[C@@H](O)[C@]2(O)C=CO[C@@H](O[C@@H]3O[C@H](CO)[C@@H](O)[C@H](O)[C@H]3O)[C@@H]21 | – | inactive: 99.9% [at 17.3 µM]
24 | C[C@@H]1CC[C@]2(C(=O)O[C@@H]3O[C@H](CO[C@@H]4O[C@H](CO)[C@@H](O[C@@H]5O[C@@H](C)[C@H](O)[C@@H](O)[C@H]5O)[C@H](O)[C@H]4O)[C@@H](O)[C@H](O)[C@H]3O)CC[C@]3(C)C(=CCC4[C@@]5(C)C[C@@H](O)[C@H](O)[C@@](C)(CO)C5CC[C@]43C)C2[C@H]1C (some centres undefined) | – | inactive: 113% [at 9.25 µM]
25 | CC(C)NC(=O)c1ccc(C=O)cc1 | – | inactive: 98.9%
26 | COC(=O)C1=CO[C@@H](O[C@@H]2O[C@H](CO[C@@H]3O[C@H](COC(=O)/C=C/c4ccc(O)cc4)[C@@H](O)[C@H](O)[C@H]3O)[C@@H](O)[C@H](O)[C@H]2O)[C@@H]2C(CO)=CC[C@H]12 | – | inactive: 91.9% [at 17.3 µM]
27 | C[C@@H](O)[C@@H](C)Oc1nc(Nc2ccc(S(=N)(=O)C3CC3)cc2)ncc1C(F)(F)F (some centres undefined) | active: 11.8 µM | –
28 | Cc1cccc(C)c1NC(=O)CN1CCCCCC1 | – | inactive: 74.2%
29 | CC(=O)O[C@@]1(C)C[C@@H](O)[C@]2(O)C=CO[C@@H](O[C@@H]3O[C@H](CO)[C@@H](O)[C@H](O)[C@H]3O)[C@@H]21 | inconclusive: 3.17 µM [cytotoxic, partial curve, poor fit] | –
30 | CC(C)c1cc(C(=O)N2CC[C@H](NC(=O)C3CC3)C2)n[nH]1 | – | inactive: 103%
31 | CC1(C(=O)O)CC[C@]2(C(=O)OC3OC(CO)C(O)C(O)C3O)CC[C@]3(C)C(=CCC4[C@@]5(C)CC[C@H](OC6OCC(O)C(O)C6OC6OC(CO)C(O)C(O)C6O)C(C)(C)C5CC[C@]43C)C2C1 (some centres undefined) | – | inactive: 78.9% [at 9.25 µM]
32 | NCCc1ccn[nH]1 | – | inactive: 116%
33 | CNC(=O)O[C@H]1COc2ccc(N3CCN(C4COC4)CC3)cc2[C@@H]1NC(=O)c1ccc(F)cc1 | – | inactive: 82.1%
34 | CCOc1ccc(-c2nc(-c3cccc4c3CCC4NCCO)no2)cc1OCC (centres undefined) | active: 13 µM | –
35 | CC(=O)OCC(=O)[C@@]12N=C(C)O[C@@H]1C[C@H]1[C@@H]3CCC4=CC(=O)C=C[C@]4(C)[C@H]3[C@@H](O)C[C@@]12C | inactive and inconclusive: 4.68 µM [cytotoxic, full curve, poor fit] | –
36 | COC(=O)[C@H](OC(C)=O)[C@H]1C(C)(C)C(=O)[C@H]2CC3=C4CC(=O)O[C@@H](c5ccoc5)[C@]4(C)CCC3[C@@]1(C)C2=O (some centres undefined) | inconclusive: 7.09 µM [cytotoxic, partial curve, poor fit] | –
37 | C[C@H]1[C@@H](O)[C@H](O)C2[C@]3(C)C([C@@H](O)[C@H]4OC(=O)[C@@H]1[C@@]24C)[C@](C)(O)C=C[C@H]3O[C@@H]1O[C@H](CO)[C@@H](O)[C@H](O)[C@H]1O (some centres undefined) | – | inactive: 82.2% [at 17.3 µM]
38 | C#CCCCn1cc(-c2cccc3c2N[C@@H](C)CC(=O)N3)cn1 | inconclusive: 23.1 µM [cytotoxic, single point] | –
39 | CC1(C)CC(NC(=O)C(=O)Nc2ccc(Br)cc2)CC(C)(C)N1 | active: 2.59 µM | –

From PubChem BioAssay (NCATS)
